# Structures can show the parent of a compound that is named as a salt. ± gives the standard deviation of the averaged measurements. This is one part of the list. Many values rest on one well or one pass, so single values are uncertain.
# How the values were obtained:
# Assay in all cases: area under viability curve (10 nM-1 µM), viability relative to solvent or trametinib-only control (AUC (arbitrary, % viability x concentration range)); higher = less growth inhibition (more viable cells)
# KCNR = conditions: 72 h compound exposure (96 h after seeding) h
# Method: (§1)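 Four neuroblastoma cell lines (KCNR, SKNBE, SJNB8, SKNAS) were seeded in 384-well plates. At 24 h, 1 µM trametinib or DMSO was added, followed by library compounds at 10 nM, 100 nM and 1 µM. Viability was read by MTT at 96 h and normalised to solvent-treated cells (DMSO arm) or to trametinib-only cells (trametinib arm). The area under the 3-point viability curve was computed in GraphPad Prism; units are as given (approx. 100000 = no effect).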
# SJNB8 = conditions: 72 h compound exposure (96 h after seeding) h; trametinib co-treatment 0 µM
# Method: as §1
# SKNAS = conditions: 72 h compound exposure (96 h after seeding) h
# Method: as §1
# SKNBE = conditions: 72 h compound exposure (96 h after seeding) h
# Method: as §1
# 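Further: KCNR is a neuroblastoma cell line carrying an ALK mutation, in this DMSO arm without trametinib, viability was normalised to solvent-treated cells.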
SMILES,area under viability curve (KCNR; trametinib co-treatment 0 µM),area under viability curve (KCNR; trametinib co-treatment 1 µM),area under viability curve (SJNB8),area under viability curve (SKNAS; trametinib co-treatment 0 µM),area under viability curve (SKNAS; trametinib co-treatment 1 µM),area under viability curve (SKNBE; trametinib co-treatment 0 µM),area under viability curve (SKNBE; trametinib co-treatment 1 µM)
CC[C@@]1(O)C(=O)OCc2c1cc1n(c2=O)Cc2cc3c([N+](=O)[O-])cccc3nc2-1 [Rubitecan],51400,45700,87800,97200,88200,78300,63600
Cc1nc(Nc2ncc(C(=O)Nc3c(C)cccc3Cl)s2)cc(N2CCN(CCO)CC2)n1 [Dasatinib],80900,79800,60600,45900,55300,107000,107000
CS(=O)(=O)CCNCc1ccc(-c2ccc3ncnc(Nc4ccc(OCc5cccc(F)c5)c(Cl)c4)c3c2)o1 [Lapatinib tosylate],110000,103000,69400,76700,103000,86100,96700
CS(=O)(=O)N1CCN(Cc2cc3nc(-c4cccc5[nH]ncc45)nc(N4CCOCC4)c3s2)CC1 [Pictilisib],69900,78100,86300,102000,75900,80700,59200
Nc1ccn([C@H]2CC[C@@H](CO)O2)c(=O)n1 [Zalcitabine],103000,100000,91400,112000,101000,104000,111000
Cc1nc(N)sc1-c1ccnc(Nc2ccc(N3CCOCC3)cc2)n1,77400,76200,81200,115000,80600,93000,92400
CC(C(=O)Nc1cccc(/N=C/c2c(O)ccc3ccccc23)c1)c1ccccc1 (stereo not drawn) [Salermide],107000,99600,85000,103000,99100,107000,110000
O=c1[nH]c(=O)n([C@H]2C[C@H](O)[C@@H](CO)O2)cc1I [Idoxuridine],101000,99100,81400,88900,95200,99400,93100
O=C(NC[C@H](O)CO)c1ccncc1Nc1ccc(I)cc1F [Pimasertib],98600,103000,37200,52500,103000,85000,108000
CCC1=C[C@H]2CN(C1)Cc1c([nH]c3ccccc13)[C@@](C(=O)OC)(c1cc3c(cc1OC)N(C)[C@H]1[C@@](O)(C(=O)OC)[C@H](OC(C)=O)[C@]4(CC)C=CCN5CC[C@]31[C@@H]54)C2 [Vinorelbine bitatrate],14300,13000,56700,27300,16200,41600,10100
O=C(NC1CCNCC1)c1n[nH]cc1NC(=O)c1c(Cl)cccc1Cl,63200,66400,98700,95700,73900,109000,85100
COc1cc([C@@H]2c3cc4c(cc3[C@@H](O[C@@H]3O[C@@H]5CO[C@@H](c6cccs6)O[C@H]5[C@H](O)[C@H]3O)[C@H]3COC(=O)[C@H]23)OCO4)cc(OC)c1O [Teniposide],14000,6620,70700,57700,59900,65700,23700
CN1CCN(CCOc2cc(OC3CCOCC3)c3c(Nc4c(Cl)ccc5c4OCO5)ncnc3c2)CC1 [Saracatinib],91800,96900,57300,84400,83400,79900,87500
Cc1cc(Nc2ncc(Cl)c(Nc3ccccc3S(=O)(=O)C(C)C)n2)c(OC(C)C)cc1C1CCNCC1 [Ceritinib],63500,59500,80200,86300,92700,99200,92200
Cc1cc2c(F)c(Oc3ncnn4cc(OC[C@@H](C)OC(=O)[C@H](C)N)c(C)c34)ccc2[nH]1 [Brivanib alaninate],107000,102000,83700,85900,104000,102000,108000
CCN(CC)CCNC(=O)c1c(C)[nH]c(/C=C2\C(=O)Nc3ccc(F)cc32)c1C [Sunitinib malate],89300,88200,94400,116000,100000,99400,99500
Nc1nc(F)nc2c1ncn2[C@@H]1O[C@H](COP(=O)(O)O)[C@@H](O)[C@@H]1O [Fludarabine phosphate],106000,107000,79700,86900,99400,100000,112000
Nc1nccc(Oc2ccc(NC(=O)c3c[nH]cc(-c4ccc(F)cc4)c3=O)cc2F)c1Cl,104000,109000,95900,115000,101000,92500,99100
CC(=O)Nc1cccc(-n2c(=O)n(C3CC3)c(=O)c3c(Nc4ccc(I)cc4F)n(C)c(=O)c(C)c32)c1 [Trametinib],84500 ± 18000,103000 ± 1800,26600 ± 7600,49900 ± 7300,101000 ± 6800,71600 ± 3600,107000 ± 5900
O=c1cc(N2CCOCC2)oc2c(-c3ccccc3)cccc12,98400,96500,97500,71100,98600,101000,93500

SMILES,area under viability curve (KCNR; trametinib co-treatment 0 µM),area under viability curve (KCNR; trametinib co-treatment 1 µM),area under viability curve (SJNB8),area under viability curve (SKNAS; trametinib co-treatment 0 µM),area under viability curve (SKNAS; trametinib co-treatment 1 µM),area under viability curve (SKNBE; trametinib co-treatment 0 µM),area under viability curve (SKNBE; trametinib co-treatment 1 µM)
Cc1ccc(C(=O)Nc2ccc(CN3CCN(C)CC3)c(C(F)(F)F)c2)cc1C#Cc1cnc2cccnn12 [Ponatinib],90800,87200,75800,97400,84800,93900,83100
CC1(C)CCC(c2ccc(Cl)cc2)=C(CN2CCN(c3ccc(C(=O)NS(=O)(=O)c4ccc(N[C@H](CCN5CCOCC5)CSc5ccccc5)c(S(=O)(=O)C(F)(F)F)c4)cc3)CC2)C1 [Navitoclax],45800 ± 6000,18500 ± 7400,88200 ± 3100,110600 ± 920,68800 ± 4500,94900 ± 12000,73900 ± 12000
C#Cc1cccc(Nc2ncnc3cc(OCCOC)c(OCCOC)cc23)c1 [Erlotinib HCl],93200,90100,95100,119000,98900,94800,91800
COc1cc2/c(=N/c3ccc(Br)cc3F)nc[nH]c2cc1OCC1CCN(C)CC1 [Vandetanib],96700,94900,69500,104000,91200,81200,93000
COc1cc2ncnc(Nc3ccc(F)c(Cl)c3)c2cc1OCCCN1CCOCC1 [Gefitinib],101000,100000,72300,59600,101000,90200,97600
O=C(c1ccc(Cl)cc1Cl)n1nnc2ccccc21,109000,107000,87000,115000,102000,109000,106000
COc1cc(N2CCC(N3CCN(C)CC3)CC2)ccc1Nc1ncc(Cl)c(Nc2ccccc2S(=O)(=O)C(C)C)n1,17400,23600,64300,56800,59200,47100,49700
C#Cc1cccc(Nc2ncnc3cc(OCCOC)c(OCCOC)cc23)c1 [Erlotinib],102000,99700,106000,125000,103000,115000,95000
CCCN(CCN1CCN(c2ccccc2OC)CC1)C1CCc2ncsc2C1 (stereo not drawn),98700,105000,80400,103000,103000,106000,111000
O=c1ncccn1[C@@H]1O[C@H](CO)[C@@H](O)[C@H]1O [Zebularine],103000,99900,95400,95700,100000,112000,104000
CCOC(=O)C1=CN(Cc2ccccc2)C=C(C(=O)OCC)C1c1ccccc1,101000,102000,81700,103000,99000,113000,102000
O[C@@H](COc1cccc2ncccc12)CN1CCN([C@@H]2c3ccccc3[C@@H]3[C@H](c4ccccc42)C3(F)F)CC1 [Zosuquidar],98800,100000,86700,116000,95300,110000,115000
O=c1[nH]c(=O)n([C@H]2C[C@H](O)[C@@H](CO)O2)cc1F [2’-Deoxy-5-fluorouridine],53900,38700,54300,62600,80100,37900,17300
COc1cccc2c1C(=O)c1c(O)c3c(c(O)c1C2=O)C[C@@](O)(C(C)=O)C[C@@H]3O[C@H]1C[C@H](NC(=O)OCc2ccc(O[C@@H]3O[C@H](CO)[C@H](O)[C@H](O)[C@H]3O)c([N+](=O)[O-])c2)[C@H](O)[C@H](C)O1,50400,24400,80100,79500,76300,91600,65100
COc1cccc2c1C(=O)c1c(O)c3c(c(O)c1C2=O)C[C@@](O)(C(=O)CO)C[C@@H]3O[C@H]1C[C@H](N)[C@@H](O)[C@H](C)O1 [Epirubicin hydrochloride],41900,18500,67200,80300,67600,68600,54400
CC[C@]1(O)C[C@@H]2CN(CCc3c([nH]c4ccccc34)[C@@](C(=O)OC)(c3cc4c(cc3OC)N(C)[C@H]3[C@@](O)(C(=O)OC)[C@H](OC(C)=O)[C@]5(CC)C=CCN6CC[C@]43[C@@H]65)C2)C1 [Vinblastine sulfate],11400,12300,19200,17400,19800,14800,2630
COc1cc2nc(N3CCCN(C)CC3)nc(NC3CCN(Cc4ccccc4)CC3)c2cc1OC,93900,93500,77700,88200,105000,79800,94300
C[C@H]1O[C@@H](n2cc(F)c(=O)[nH]c2=O)[C@H](O)[C@@H]1O [Doxifluridine],106000,96000,108000,61600,104000,111000,99000
COc1cc(C(=O)O)ccc1NC(=O)[C@@H]1N[C@@H](CC(C)(C)C)[C@](C#N)(c2ccc(Cl)cc2F)[C@H]1c1cccc(Cl)c1F [Idasanutlin],46500,21800,79500,101000,100000,96900,85000
